Results: PubChem BioAssay AID624418 (National Center for Advancing Translational Sciences (NCATS), 2012)
Out of some 410,000 compounds screened, about 530 (0.13%) were called active. The shares of active, inactive and inconclusive entries below differ from those in the screen. Calls follow the shape of the dose curve; as a rule, active = well fitted inhibition curve with a large enough effect; inconclusive = small, poorly fitted or top-dose-only effect, or another doubt; inactive = no such curve, though single readings can be large or run the other way. Potencies beside an inconclusive call are fits to weak or partial responses and may not hold up.

assay: qHTS of GLP-1 Receptor Inverse Agonists: Cytotox Screen; conditions: HEK293 cAMP-luciferase reporter cells, luminescence, 24 h; series mostly up to 38.3 µM
In short: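 Cells in DMEM/10% Nu serum/1% pen-strep, 1536-well format. Pre-incubated 12 h, dosed with 23 nL compound, incubated a further 24 h. Luciferase detection, 12 min at room temp, luminescence.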
Potency is read from the fitted curve at half-maximal effect.

Compound | Potency
CCOc1ccc2c(c1)c(N=Nc1cccc(C(=O)O)c1)c(O)n2C | inconclusive: 10 µM [inhibitor, partial curve]
OCCC1CN(Cc2cnn(-c3ccc(F)cc3)c2)CCN1Cc1ccsc1 (centres undefined) | inconclusive: 28.2 µM [inhibitor, single point]
C=CCn1c(SCc2c(C)noc2C)nc2ccccc2c1=O | inconclusive: 0.631 µM [inhibitor, full curve, poor fit]
Cc1ccc(C(=O)NC(=S)Nc2ccccc2C(F)(F)F)cc1 | inconclusive: 11.2 µM [inhibitor, single point]
C=CCn1c(CNc2ccc(C)cc2)nnc1SCC(=O)N/N=C/c1ccc(O)cc1O | inconclusive: 22.4 µM [inhibitor, partial curve, poor fit]
CN(C)c1ccc(N=Nc2cccc(F)c2)cc1 | inconclusive: 2.82 µM [inhibitor, full curve]
CC(/C=N/NC(=O)c1cc(-c2ccccc2)nc2ccccc12)=C\c1ccco1 | inconclusive: 1.41 µM [inhibitor, full curve]
CCCCNC1=CC(=O)C(NCCCC)=CC1=O | inconclusive: 28.2 µM [inhibitor, single point]
O=C(NCc1ccc2c(c1)OCO2)c1ccc(CSCc2ccccc2Cl)o1 | inactive
O=S(=O)([N-]c1nc2ccccc2nc1-[n+]1ccccc1)c1ccc(Cl)cc1 | inconclusive: 10 µM [inhibitor, partial curve]
CC(=O)Nc1ccc(NC(=O)c2cc3c(=O)n(Cc4cccnc4)ccc3nc2C)cc1 | inactive
COc1ccc(-c2cc3c(=O)n(CC(=O)NCc4cccnc4)nc(C)n3n2)cc1 | inactive
Cc1ccc(C(=O)NCC(=O)NCCCc2ccccc2)cc1 | inconclusive: 28.2 µM [inhibitor, single point]
CC1(C(=O)N/N=C/c2c(F)c(F)c(F)c(F)c2F)CC1(Cl)Cl (centres undefined) | inconclusive: 10 µM [inhibitor, partial curve, poor fit]
CN1CCN(/N=C/c2ccc(N(c3ccccc3)c3ccccc3)cc2)CC1 | inconclusive: 2.51 µM [inhibitor, full curve, poor fit]
CNc1nc(C)nc(-n2nc(C)cc2C)n1 | inconclusive: 28.2 µM [inhibitor, single point]
CCC1=Nc2cc(C(=O)NC3CCC(C)CC3)ccc2Sc2ccc(C)cc21 (centres undefined) | inconclusive: 1 µM [inhibitor, full curve]
COC(=O)c1ccc(CN(C)S(=O)(=O)c2cccs2)cc1 | inconclusive: 3.55 µM [inhibitor, partial curve]
CCOC(=O)c1[nH]c2ccc(OC)cc2c1NC(=O)NC(C)C | inactive
O=C(CSc1nc2c(sc3ccccc32)c(=O)n1CCCN1CCCC1)NCc1ccccc1 | inconclusive: 31.6 µM [inhibitor, partial curve, poor fit]
CSc1nc(-c2ccco2)nn1C(=O)c1ccccc1Cl | inconclusive: 2.51 µM [inhibitor, partial curve, poor fit]
CCOc1ccc(NC(=O)c2c(NC(=O)CNCCN3CCOCC3)sc3c2CCC3)cc1 | inconclusive: 1.26 µM [inhibitor, full curve]

Compound | Potency
Cc1cc(C)c(S(=O)(=O)N2CCN(C(=O)CCOc3ccccc3C)CC2)c(C)c1 | inactive
O=C(Nc1nc(-c2ccncc2)cs1)C1c2ccccc2Oc2ccccc21 | inactive
COc1ccccc1N1CCN(CC(O)COc2ccc(S(=O)(=O)N3CCOCC3)cc2)CC1 (centres undefined) | inconclusive: 6.31 µM [inhibitor, partial curve, poor fit]
COc1ccc(C(=O)C2CCCN(Cc3cnc(N4CCOCC4)s3)C2)cc1F (centres undefined) | inconclusive: 20 µM [inhibitor, single point]
Cc1cccc(C)c1NC(=S)N(Cc1ccccc1)Cc1cccs1 | inconclusive: 22.4 µM [inhibitor, single point]
COc1cccc(/C=C2\SC(=S)N(CCC(=O)N3CCCCC3CCO)C2=O)c1 (centres undefined) | inconclusive: 28.2 µM [inhibitor, single point]
CCCn1c(=N)n(CC(=O)c2cccs2)c2ccccc21 | inconclusive: 22.4 µM [inhibitor, single point]
N#C/C(=N\Nc1ccc(Br)cc1)C(=N)N1CCOCC1 | inconclusive: 20 µM [inhibitor, partial curve, poor fit]
S=c1nc(C2CCCCC2)[nH][nH]1 | inconclusive: 28.2 µM [inhibitor, single point]
CCCCCOc1ccc(Cn2c(=O)oc3ccccc32)cc1 | inactive
Fc1ccc(CNC(=S)NCc2cccc(Cl)c2)cc1 | inconclusive: 12.6 µM [inhibitor, single point]
CC(C)c1ccc(OCC(O)CN2CCN(c3ccccc3)CC2)cc1 (centres undefined) | inconclusive: 31.6 µM [inhibitor, single point]
CC(C)(C)c1ccc(CN(Cc2ccco2)Cc2nnnn2C2CCCC2)cc1 | inconclusive: 31.6 µM [inhibitor, single point]
CC(NC(=O)C1CCCN(S(=O)(=O)c2cnc[nH]2)C1)c1ccccc1 (centres undefined) | inconclusive: 4.47 µM [inhibitor, full curve]
CC1(C)CC(=O)c2cc(OCC(=O)NCCCN3CCN(c4ccc(F)cc4)CC3)ccc2O1 | inactive
CCOC(=O)N1CCN(S(=O)(=O)c2ccc3[nH]c(=O)oc3c2)CC1 | inactive
CN1C(=O)Cc2cc(S(=O)(=O)NCCc3ccc(Cl)cc3)ccc21 | inactive
CCN(CC)CCCNc1oc(-c2ccc(OC)c(OC)c2)nc1C#N | inactive
CC(c1ccccc1F)n1cc(C(=O)NCCc2ccco2)nn1 (centres undefined) | inconclusive: 11.2 µM [inhibitor, partial curve, poor fit]
CCOC(=O)CC(=O)CSc1nc2sc(C)cc2c(=O)n1Cc1ccco1 | inactive
CCC(C)Sc1cccc(-c2nc3cc(C)ccn3c2NC2CCCCC2)c1 (centres undefined) | inconclusive: 22.4 µM [inhibitor, single point]
CC(C)C[C@@H]1NC(=O)[C@H](C(C)C)NC(=O)c2cc([N+](=O)[O-])cc(I)c2OCC[C@@H](C(N)=O)NC1=O | inactive
